Out of some 43,000 compounds screened, about 200 (0.47%) were called active. Inconclusive results (about 12%) are left out. Calls come from the whole dose curve; as a rule, active = well fitted cell-killing curve with a large enough effect; inconclusive = small, poorly fitted or top-dose-only effect, or effect the other way; inactive = flat fitted curve, though single readings scatter. The list shows a part of the results.
% is set by controls: 0 for no effect and ±100 for the full control effect.

The test in a line: Cell viability qHTS assay in S16 Pmp22-F2sN cells. Note: nearly all actives have a fitted effect of over 65% in size. The following applies: S16 Pmp22-F2sN Schwann cells (luciferase reporters placed in the Pmp22 gene) viability, CellTiter-Glo, 24 h; series mostly up to 57.5 µM; activity change, negative = cytotoxicity: at the top concentration. In outline:
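Seed 500-1,000 S16 Pmp22-F2sN cells per well in phenol-red-free DMEM with 10% heat-inactivated FBS; pin-add 23 nL compound; incubate 24 h at 37C; add CellTiter-Glo, wait 15 min protected from light; read luminescence.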
Background: In qHTS, concentration-response curves come from the screen itself.
For the compound `Cc1ccc(-n2nc(-c3ccc(F)cc3)c3cnc4cc5c(cc4c32)OCO5)cc1C`, the “activity change, negative = cytotoxicity” value is inactive: 15.3%. For `CCc1ccc(NC(=O)CC(c2ccc(C)cc2)N2Cc3ccccc3C2=O)cc1` (stereo not drawn) the value was inactive: 12.9%; for `COCCNC(=O)c1ccc2nc(CCc3ccccc3)oc2c1`, inactive: 0.348%; for `O=C(Nc1ccc2oc(-c3ccc4ccccc4c3)nc2c1)c1cc(Br)ccc1Cl`, inactive: -4.38%. In the case of `O=C(NCc1ccc(Cl)cc1)C(=O)Nc1cccc(Br)c1`, the “activity change, negative = cytotoxicity” value was inactive: -16.6%. The value for `CC1CCC(NC(=O)c2ccc3c(c2)N(Cc2cccc(Cl)c2)C(=O)c2ccccc2S3=O)CC1` (stereo not drawn) was inactive: -0.0231%; that for `Cc1ccc(CN(C(=O)c2ccccc2Br)C2CCS(=O)(=O)C2)o1` (stereo not drawn) was inactive: 11.6%. For `Cc1ccc(NC(=O)Nc2cc3c(cc2N2CCCCC2)n(C)c(=O)n3C)cc1Cl` the value was inactive: 0.962%; for `CCOc1ccccc1NC(=O)COc1cccc2c(=O)n(CCOC)ccc12`, inactive: -5.46%; for `Cn1c(=O)c2c(SCC(=O)NCc3ccco3)nc(-c3ccccc3F)nc2n(C)c1=O`, inactive: -9.12%. For `COc1ccc(NC(=O)C2CCN(S(=O)(=O)c3c(C)noc3/C=C/c3ccco3)CC2)cc1` the value was inactive: 2.49%; for `Cc1cccc(-c2noc(-c3ccc(N4CCCC4)c([N+](=O)[O-])c3)n2)c1`, inactive: 8.9%; for `COc1cccc(NC(=O)Cn2c(=O)n(-c3cccc(OC)c3)c(=O)c3c4c(sc32)CCCC4)c1`, inactive: 11.7%. With `COc1ccc(NS(=O)(=O)c2ccc3[nH]c4c(c3c2)CCCC4)c(OC)c1`, the “activity change, negative = cytotoxicity” value was inactive: -1.49%. For `CN(C)c1ccc(C(CNS(=O)(=O)c2cc(F)ccc2F)N2CCOCC2)cc1` (stereo not drawn), the “activity change, negative = cytotoxicity” value is inactive: -4.79%. For the compound `Cc1cc(C)c(Cn2c(=O)n(CCCCCC(=O)NCc3ccc4c(c3)OCO4)c(=O)c3sccc32)c(C)c1`, the “activity change, negative = cytotoxicity” value was inactive: -0.438%.

`O=C(CSCc1ccc(F)cc1)N1CCN(c2ccccc2)CC1`: the “activity change, negative = cytotoxicity” value was inactive: 0.369%.

Take `COc1ccc(C(CNC(=O)c2ccc(C)cc2)N2CCOCC2)cc1` (stereo not drawn): the “activity change, negative = cytotoxicity” value is inactive: -2.08%. The value for `CCc1ccc(C2C(C(=O)Nc3ccccc3)=C(C)Nc3nc(SCC(=O)c4ccc(C)cc4)nn32)cc1` (stereo not drawn) was inactive: -6.25%. For `CC(=O)c1ccc(NC(=O)Cn2c3ncccc3c(=O)n2-c2ccc(C)cc2)cc1` the value was inactive: 8.83%. As to `COc1ccc(NC(=O)c2cnc(SCC(=O)Nc3nc4ccc(C)cc4s3)n(C)c2=O)cc1`, the “activity change, negative = cytotoxicity” value was inactive: 22.3%.

Consider `Cc1ccc(-c2noc(CSc3nnc(-c4ccc(Cl)cc4)n3C)n2)cc1`, for which the “activity change, negative = cytotoxicity” value is inactive: -20.5%. The value for `Cc1cccc(C(=O)NCC(c2ccc3c(c2)OCO3)N2CCOCC2)c1` (stereo not drawn) was inactive: 6.82%; that for `O=C(c1ccco1)c1cn(CCOc2ccc(Cl)cc2)c2ccccc12` was inactive: 8.83%; that for `CCC(=O)N1CCc2cc(CNC(=O)Nc3ccc(OC)cc3OC)ccc21` was inactive: 0.582%. For `COc1ccccc1-c1cc(C(F)(F)F)nc(S(=O)(=O)CCCC(=O)Nc2cc(Br)ccc2O)n1` the value was inactive: 17.3%. The value for `O=C(CSc1nccn1Cc1ccccc1)NC1CCCC1` was inactive: -9.6%; that for `COc1cccc(Cc2nc3ccccc3nc2SCC(=O)N2CCCCC2C)c1` (stereo not drawn) was inactive: -7.42%; that for `Cc1ccc2nc(NCc3ccccc3Cl)c3nnnn3c2c1` was inactive: 0.405%.

For `O=C(CSc1nc2c([nH]c3ccccc32)c(=O)n1-c1cccc(Cl)c1)N1CCc2ccccc21`, the “activity change, negative = cytotoxicity” value is inactive: 5.43%.

As to `COc1cc2ccccc2cc1C(=O)Nc1ccc2oc(-c3cc(Br)ccc3Cl)nc2c1`, the “activity change, negative = cytotoxicity” value was inactive: -0.447%. The value for `O=C(NCc1ccco1)c1ccc2c(c1)N(Cc1ccc(F)cc1)C(=O)c1ccccc1S2=O` (stereo not drawn) was inactive: -6.28%; that for `O=C(CN1C(=O)CSc2ccc(S(=O)(=O)N3CCCCC3)cc21)NCc1ccc(F)cc1Cl` was inactive: 2.1%; that for `COc1cc(NC(=O)CCc2c(C)n(C)c3cc(-c4ccccc4C)nn3c2=O)cc(OC)c1OC` was inactive: 13%. For `CCOc1ccccc1NC(=O)c1sc2nc3c(cc2c1N)CN(Cc1ccccc1)CC3` the value was inactive: 3.4%; for `COc1cccc(C(=O)CN2CCN(S(=O)(=O)c3ccc(Cl)cc3)CC2)c1`, inactive: 3.23%. The value for `Cc1ccc(NC(=O)CCS(=O)(=O)c2cccc3nonc23)c(C)c1` was inactive: 14.1%; that for `CCOc1ccc(NC(=O)Cn2c(CCC(=O)O)ccc2-c2ccc(Cl)cc2)cc1` was inactive: 6.06%. Take `CCCN1C(C(=O)c2ccccc2)=C(OC(=O)c2ccc(F)cc2)c2ccccc2S1(=O)=O`: the “activity change, negative = cytotoxicity” value was inactive: -12.2%. For `Cc1ccc(C)c(Cn2c3ccccc3c3cnn(CC(=O)N4CCCCC4)c(=O)c32)c1`, the “activity change, negative = cytotoxicity” value is inactive: 9.55%.

Regarding `Cc1cccc(-n2c(=O)c3ccccc3n(Cc3ccccc3C#N)c2=O)c1`, the “activity change, negative = cytotoxicity” value was inactive: 13.6%. As for `COc1cc2c(C(=O)N3CCN(c4cccc(C)c4)C(C)C3)cn(CC(C)C)c(=O)c2cc1OC` (stereo not drawn), the “activity change, negative = cytotoxicity” value was inactive: -29.6%. As to `Cc1nn(CCC(=O)NC(C)C)c(=O)c2nn(-c3ccccc3)c(C)c12`, the “activity change, negative = cytotoxicity” value was inactive: 2.06%. Take `COc1ccc(Cl)cc1NC(=O)c1cc(S(=O)(=O)N2CCc3ccccc32)cn1C`: the “activity change, negative = cytotoxicity” value is inactive: 6.25%.

With `CC(C)Oc1ccc(CNC(=O)c2ccc3nc(SCc4ccc(F)cc4)n(C)c3c2)cc1`, the “activity change, negative = cytotoxicity” value was inactive: -1.97%. For `CC(NC(=O)c1ccc2nc(CCc3ccccc3)oc2c1)c1ccccc1` (stereo not drawn) the value was inactive: -3.56%; for `Cc1ccccc1Cn1c(C)c(CNCc2ccccc2)c(C(=O)O)c1C`, inactive: 11.9%.

`COc1ccc(NC(=O)CN(C)S(=O)(=O)c2ccc3[nH]c4c(c3c2)CCCC4)cc1OC`: the “activity change, negative = cytotoxicity” value was inactive: -1.89%.

Values taken from PubChem BioAssay AID1508642 (National Center for Advancing Translational Sciences (NCATS), 2021).
